Experimental findings from EP2608671B1, “COMPOUNDS FOR TREATMENT OF CANCER” (Gtx, Inc., priority 2010, dated 2012) are described below.

Structures are written as SMILES. Read-outs that look alike come from different tables or passages of the source.

The subject of assay [1] is WM-164 melanoma cells. Description: Microtubule imaging (immunofluorescence). The class given is cell-based, human. As to conditions: 18 h treatment. The source says: Primary antibody for tubulin and fluorescence-labeled secondary antibody were subsequently added to the cells. Cell nuclei were stained by DAPI. Whole Cell Stain Green was also applied to all cells. All images were acquired with an Olympus IX71 inverted fluorescence microscope (Olympus Corp., Tokyo, Japan) with overlays from separate images of tubulin (red), nuclei (blue), and whole cells (green).

For assay [2], the system named is B16-F1 melanoma cells. Description: Melanoma colony formation assay in soft agar. The class given is cell-based. As to conditions: Mus musculus, B16-F1, 336 h, read-out: concentration with effective inhibition of colony formation; 14 days; tested 20, 100, 500 nM. As to the method:
B16-F1 melanoma cells were plated at a colony-forming density (2000 cells per well on six-well plates) on top of 0.8% base agar. Cells were grown in 0.4% agar together with DMEM medium supplemented with fetal bovine serum and an antibiotic-antimycotic solution at 37 °C in an atmosphere of 95% air and 5% CO2. […] Compounds were added to the media from 1 mM DMSO stock solutions, and a corresponding dilution of DMSO was used as control. Cells were grown for 14 days. Plates were photographed, and the number of colonies was measured by Artek 880 Automated Colony Counter (Artek Systems Corporation, Farmingdale, NY).

Assay [3] deals with A375 cells. Description: Cell cycle analysis (G2/M arrest), flow cytometry. The format is cell-based. As to conditions: Homo sapiens, A-375; 24 h; Figure 25D; read-out: concentration from which most cells are arrested in the G2/M phase. On the technique in general: In flow cytometry, cells or beads pass a laser one at a time.
For assay [4], the system named is DU 145. Description: cells. The settings on record: Homo sapiens, DU-145, 96 h, read-out: IC50 (nM), DU-145.
Assay [5] relates to MES-SA. Description: SRB growth inhibition assay. The format is cell-based. The settings on record: Homo sapiens, 96 h, Table 7.
Assay [6] relates to LNCaP. Description: cells. The settings on record: Homo sapiens, 96 h, read-out: IC50 (nM), LNCaP.
For assay [7], the system named is HUVEC monolayers. Description: Endothelial monolayer permeability assay. The class given is cell-based, human. The settings on record: leakage of dextran after 1, 2, 4 h.
In assay [8] the test system is PPC-1. Description: cells. As to conditions: Homo sapiens, PPC-1, 96 h.
Assay [9] relates to MES-SA/DX5. Description: SRB growth inhibition assay, P-gp over-expressing line. The format is cell-based.
In assay [10] the test system is PC-3. Description: cells. As to conditions: Homo sapiens, PC-3, 96 h, read-out: IC50 (nM), PC-3. The source says:
The only compounds which belong to the invention are the ones falling under the scope of formula (XI).
Cells were stained with SRB solution.
Cells. […] Cells between the third and fifth passages were used for experiments.
Cell growth inhibition studies. […] Cells were stained with sulphorhodamine B (SRB) solution.

On to `COc1cc(C(=O)c2c[nH]c(-c3ccc(C)cc3)n2)cc(OC)c1OC` [12da, (2-(p-Tolyl)-1H-imidazol-4-yl)(3,4,5-trimethoxyphenyl)methanone], for which, in assay [1], the “effect on microtubules” value was “microtubule fragmentation”.

As for `CC(=O)O[C@H]1C(=O)[C@@]2(C)[C@H]([C@H](OC(=O)c3ccccc3)[C@]3(O)C[C@H](OC(=O)[C@H](O)[C@@H](NC(=O)c4ccccc4)c4ccccc4)C(C)=C1C3(C)C)[C@]1(OC(C)=O)CO[C@@H]1C[C@@H]2O` [Paclitaxel, reference compound], the “effect on microtubules” value in [1] was “condensation of microtubules”.

As for `COc1ccc(-c2nc(C(=O)c3ccc(F)cc3)c[nH]2)cc1` [12cb, (4-Fluorophenyl)(2-(4-methoxyphenyl)-1H-imidazol-4-yl)methanone], the minimal effective concentration in assay [2] is 0.02 µM; in assay [3], 0.2 µM. For the same compound, in assay [1], the “effect on microtubules” value is “microtubule fragmentation”.

For `CC(=O)O[C@@]12CO[C@@H]1C[C@H](O)[C@@]1(C)C(=O)[C@H](O)C3=C(C)[C@@H](OC(=O)[C@H](O)[C@@H](NC(=O)OC(C)(C)C)c4ccccc4)C[C@@](O)([C@@H](OC(=O)c4ccccc4)[C@H]21)C3(C)C` [Docetaxel, reference compound], the IC50 (as a rule, the concentration at which inhibition is half-maximal) came out at 5.2 ± 1 nM in assay [4], 5.9 ± 1.1 nM in assay [5] and 4.7 ± 1.3 nM in assay [6].

Take `COc1ccc(/C=C\c2cc(OC)c(OC)c(OC)c2)cc1O` [CA4]: the “permeability of endothelial cell monolayer” value in assay [7] is recorded as “increased permeability”.

In the case of `O=C(c1ccc(F)cc1)c1c[nH]c(-c2ccc(Cl)cc2)n1` [12fb, (2-(4-Chlorophenyl)-1H-imidazol-4-yl)(4-fluorophenyl)methanone], the concentration for half-maximal inhibition (IC50) in assay [8] (read-out: IC50 ± SEM (nM) PPC-1) turned out to be 32 ± 1 nM.

For `Fc1ccc(-c2nccc3ccc(-c4ccc5[nH]ccc5c4)cc23)cc1` [6c, 1-(4-Fluoro-phenyl)-7-(1H-indol-5-yl)-isoquinoline], the IC50 was found to be 46.6 ± 13.8 nM in [4]; 35.6 ± 2.8 nM in assay [5]; 38.3 ± 9.7 nM in assay [6]; 59.2 ± 0.1 nM in [9] (Homo sapiens, MES-SA/Dx5, P-gp over-expressed, SRB, 96 h, Table 7); 25.6 ± 8.3 nM in assay [10]; 27.7 ± 4.5 nM in [8] (read-out: IC50 (nM), PPC-1). For the same compound, the Resistance factor in [9] (ratio of IC50 MES-SA/DX5 to MES-SA, 5760 min) is reported as 1.7.
